Viability of KB3-1 and Nalm-6 cells after 48 h of drug alone (CellTiter-Glo), 11 doses over about 4.5 log units. % of DMSO wells, lower = more cell loss; AC50 from the fitted curve, lower = more potent. No active / inactive call. Nalm-6 was screened in two runs. AC50 is listed only for well-fitted inhibitory curves. KB3-1 is a HeLa-derived carcinoma line, Nalm-6 a B-cell precursor leukaemia line.
Assays:
KB3-1 [1] = assay: viability (% of DMSO control); higher = more viable cells
Experimental: (§1)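 Eleven-dose screen of the NCATS MIPE 3 library on cells without co-treatment; CellTiter-Glo after 48 h, as % of DMSO wells.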

Nalm-6 [2] = assay: as above
Experimental: as §1

KB3-1 [3] = assay: log AC50 of viability decrease (48 h) (log10 M); higher = less potent
Experimental: (§2)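 Eleven-dose screen of the NCATS MIPE 3 library on cells without co-treatment; CellTiter-Glo after 48 h. AC50 from the curve fit; only inhibitory curves of the better fit classes are listed.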

Nalm-6 [4] = assay: as above
Experimental: as §2

SMILES | viability (KB3-1 [1]; 0.00078 µM) [%] | viability (KB3-1 [1]; 0.00234 µM) [%] | viability (KB3-1 [1]; 0.00702 µM) [%] | viability (KB3-1 [1]; 0.0211 µM) [%] | viability (KB3-1 [1]; 0.0632 µM) [%] | viability (KB3-1 [1]; 0.19 µM) [%] | viability (KB3-1 [1]; 0.569 µM) [%] | viability (KB3-1 [1]; 1.71 µM) [%] | viability (KB3-1 [1]; 5.12 µM) [%] | viability (KB3-1 [1]; 15.4 µM) [%] | viability (KB3-1 [1]; 46.1 µM) [%] | viability (Nalm-6 [2]; run: 1, 0.00078 µM) [%] | viability (Nalm-6 [2]; run: 1, 0.00234 µM) [%] | viability (Nalm-6 [2]; run: 1, 0.00702 µM) [%] | viability (Nalm-6 [2]; run: 1, 0.0211 µM) [%] | viability (Nalm-6 [2]; run: 1, 0.0632 µM) [%] | viability (Nalm-6 [2]; run: 1, 0.19 µM) [%] | viability (Nalm-6 [2]; run: 1, 0.569 µM) [%] | viability (Nalm-6 [2]; run: 1, 1.71 µM) [%] | viability (Nalm-6 [2]; run: 1, 5.12 µM) [%] | viability (Nalm-6 [2]; run: 1, 15.4 µM) [%] | viability (Nalm-6 [2]; run: 1, 46.1 µM) [%] | viability (Nalm-6 [2]; run: 2, 0.00078 µM) [%] | viability (Nalm-6 [2]; run: 2, 0.00234 µM) [%] | viability (Nalm-6 [2]; run: 2, 0.00702 µM) [%] | viability (Nalm-6 [2]; run: 2, 0.0211 µM) [%] | viability (Nalm-6 [2]; run: 2, 0.0632 µM) [%] | viability (Nalm-6 [2]; run: 2, 0.19 µM) [%] | viability (Nalm-6 [2]; run: 2, 0.569 µM) [%] | viability (Nalm-6 [2]; run: 2, 1.71 µM) [%] | viability (Nalm-6 [2]; run: 2, 5.12 µM) [%] | viability (Nalm-6 [2]; run: 2, 15.4 µM) [%] | viability (Nalm-6 [2]; run: 2, 46.1 µM) [%] | log AC50 of viability decrease (KB3-1 [3]) | log AC50 of viability decrease (Nalm-6 [4]; run: 1) | log AC50 of viability decrease (Nalm-6 [4]; run: 2)
Cc1ccc(NC(=O)c2ccc(CN3CCN(C)CC3)cc2)cc1Nc1nc(-c2cccnc2)cs1 [Masitinib] | 105 | 101 | 107 | 102 | 106 | 106 | 106 | 97.2 | 93.3 | 85 | 14.3 | 117 | 116 | 116 | 119 | 119 | 100 | 114 | 113 | 81.4 | 52.2 | 21.8 | 113 | 111 | 105 | 106 | 109 | 108 | 106 | 104 | 69.5 | 93.2 | 11.3 | -4.63 | -4.93 | -4.68
CNc1nccc(-c2cccnc2Oc2cc(C(=O)Nc3cccc(C(F)(F)F)c3)ccc2C)n1 [AMG-Tie2-1] | 103 | 106 | 103 | 102 | 109 | 103 | 105 | 99 | 96 | 88.8 | 5.96 | 101 | 106 | 96.8 | 102 | 99.4 | 106 | 103 | 100 | 70.1 | 54.9 | 4.84 | 98.6 | 106 | 100 | 101 | 96.7 | 99.4 | 102 | 103 | 76.5 | 46.4 | 5.19 | -4.63 | -4.83 | -4.83
C[C@@H](NC1=CC=CC=C1C(O)=O)C/2=C/C(=C\N3C(=O)/C=C(\N=C23)N4CCOCC4)C [AZD-6482] | 104 | 97.7 | 111 | 105 | 102 | 101 | 97.9 | 101 | 93.4 | 90.2 | 66.1 | 121 | 120 | 120 | 117 | 121 | 111 | 97.9 | 89.8 | 71.8 | 66.3 | 39.4 | 112 | 106 | 110 | 110 | 110 | 104 | 96.2 | 93.5 | 79.5 | 73.5 | 43.8 | -4.68 | -5.23 | -4.83
O=C1\C=C(OC2=C(C=CC=C12)C3=CC=CC4=C3SC5=C4C=CC=C5)\N6CCOCC6 [NU-7441] | 100 | 98.8 | 94.4 | 98 | 94.5 | 94.1 | 97.6 | 90.8 | 86.8 | 73.9 | 4.36 | 100 | 103 | 113 | 105 | 102 | 115 | 102 | 90.7 | 76.8 | 46.6 | -0.43 | 110 | 112 | 107 | 114 | 111 | 114 | 118 | 109 | 100 | 58.9 | 0.611 | -4.53 | -4.78 | -4.78
NC/1=N/C(=O)C2=C([NH]C=C2CCC3=CC=C(C=C3)C(=O)N[C@@H](CCC(O)=O)C(O)=O)N1 [Pemetrexed disodium] | 111 | 109 | 113 | 108 | 99.1 | 95.6 | 93 | 83.4 | 81.9 | 81.3 | 80 | 123 | 118 | 113 | 95.7 | 59.6 | 33.4 | 22.8 | 19.9 | 20.2 | 16.5 | 11.3 | 102 | 109 | 105 | 96 | 50.2 | 20.1 | 14.1 | 9.76 | 8.74 | 6.79 | 3.85 | -6.73 | -7.33 | -7.23
Cn1c(Nc2ccc(C(F)(F)F)cc2)nc2cc(Oc3ccnc(-c4nc(C(F)(F)F)c[nH]4)c3)ccc21 [CHIR-265] | 102 | 95.4 | 98.7 | 94.2 | 92.5 | 86.3 | 81.2 | 85.9 | 70.9 | 69.7 | 30.2 | 106 | 99.5 | 108 | 96.7 | 92.8 | 85.2 | 71.9 | 80.6 | 59.2 | 53 | 2.62 | 101 | 96.4 | 103 | 101 | 94 | 76.7 | 71.3 | 75.2 | 51.9 | 41.4 | 1.79 | -4.63 | -4.73 | -4.93

— the supplement of paper PMC4996465
